Laboratory results taken from the supplement of paper PMC8728848.
This is one part of the list.

What was measured:
Assay in all cases: glycan array binding signal (z-score within array); higher = stronger binding
Settings in all cases: glycan notation: IUPAC condensed, linker removed; mutation: F63H
[1] = biological target: Neu5Ac(a2-6)Gal(b1-4)GlcNAc(b1-3)Gal(b1-4)GlcNAc(b1-3)Gal(b1-4)GlcNAc
Summary of the method: (§1)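 Glycan array data were curated from 3228 arrays in the Consortium for Functional Glycomics database and kept only where the protein sequence was available. Glycan names were converted to IUPAC-condensed notation, and columns mapping to the same glycan were averaged. The binding signal is a within-array Z-score, averaged across arrays of the same protein sequence at different concentrations or buffers and across linkers. Negative Z-scores can be read as non-binding.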

[2] = biological target: Neu5Ac(a2-6)Gal(b1-4)GlcNAc(b1-3)Gal(b1-4)GlcNAc(b1-3)Gal(b1-4)GlcNAc(b1-2)Man(a1-3)[Neu5Ac(a2-6)Gal(b1-4)GlcNAc(b1-3)Gal(b1-4)GlcNAc(b1-3)Gal(b1-4)GlcNAc(b1-2)Man(a1-6)]GalNAc
Summary of the method: as §1

[3] = biological target: Neu5Ac(a2-6)Gal(b1-4)GlcNAc(b1-3)Gal(b1-4)GlcNAc(b1-3)GalNAc
Summary of the method: as §1

[4] = biological target: Neu5Ac(a2-6)Gal(b1-4)GlcNAc(b1-3)Gal(b1-4)GlcNAc(b1-3)[Neu5Ac(a2-6)Gal(b1-4)GlcNAc(b1-3)Gal(b1-4)GlcNAc(b1-6)]GalNAc
Summary of the method: as §1

[5] = biological target: Neu5Ac(a2-6)Gal(b1-4)GlcNAc(b1-3)Gal(b1-4)GlcNAc(b1-6)[Gal(b1-3)]GalNAc
Summary of the method: as §1

[6] = biological target: Neu5Ac(a2-6)Gal(b1-4)GlcNAc(b1-3)Gal(b1-4)[Fuc(a1-3)]GlcNAc(b1-3)Gal(b1-4)[Fuc(a1-3)]GlcNAc
Summary of the method: as §1

[7] = biological target: Neu5Ac(a2-6)Gal(b1-4)GlcNAc(b1-3)GalNAc
Summary of the method: as §1

[8] = biological target: Neu5Ac(a2-6)Gal(b1-4)GlcNAc(b1-3)[Neu5Ac(a2-6)Gal(b1-4)GlcNAc(b1-6)]GalNAc
Summary of the method: as §1

[9] = biological target: Neu5Ac(a2-6)Gal(b1-4)GlcNAc(b1-6)GalNAc
Summary of the method: as §1

[10] = biological target: Neu5Ac(a2-6)Gal(b1-4)GlcNAc(b1-6)[Gal(b1-3)GlcNAc(b1-3)]Gal(b1-4)Glc
Summary of the method: as §1

[11] = biological target: Neu5Ac(a2-6)Gal(b1-4)GlcNAc(b1-6)[Gal(b1-3)]GalNAc
Summary of the method: as §1

[12] = biological target: Neu5Ac(a2-6)Gal(b1-4)GlcNAc6S
Summary of the method: as §1

[13] = biological target: Neu5Ac(a2-6)GalNAc
Summary of the method: as §1

[14] = biological target: Neu5Ac(a2-6)GalNAc(b1-4)GlcNAc
Summary of the method: as §1

[15] = biological target: Neu5Ac(a2-6)GalNAc(b1-4)GlcNAc6S
Summary of the method: as §1

[16] = biological target: Neu5Ac(a2-6)GlcNAc(b1-4)GlcNAc
Summary of the method: as §1

[17] = biological target: Neu5Ac(a2-6)GlcNAc(b1-4)GlcNAc(b1-4)GlcNAc
Summary of the method: as §1

[18] = biological target: Neu5Ac(a2-8)Neu5Ac
Summary of the method: as §1

[19] = biological target: Neu5Ac(a2-8)Neu5Ac(a2-3)Gal(b1-3)GalNAc(b1-4)[Neu5Ac(a2-3)]Gal(b1-4)Glc
Summary of the method: as §1

[20] = biological target: Neu5Ac(a2-8)Neu5Ac(a2-3)Gal(b1-3)GalNAc(b1-4)[Neu5Ac(a2-8)Neu5Ac(a2-3)]Gal(b1-4)Glc
Summary of the method: as §1

[21] = biological target: Neu5Ac(a2-8)Neu5Ac(a2-3)Gal(b1-4)Glc
Summary of the method: as §1

[22] = biological target: Neu5Ac(a2-8)Neu5Ac(a2-3)Gal(b1-4)GlcNAc
Summary of the method: as §1

[23] = biological target: Neu5Ac(a2-8)Neu5Ac(a2-3)[Gal(b1-3)GalNAc(b1-4)]Gal(b1-4)Glc
Summary of the method: as §1

[24] = biological target: Neu5Ac(a2-8)Neu5Ac(a2-3)[GalNAc(b1-4)]Gal(b1-4)Glc
Summary of the method: as §1

[25] = biological target: Neu5Ac(a2-8)Neu5Ac(a2-8)Neu5Ac
Summary of the method: as §1

[26] = biological target: Neu5Ac(a2-8)Neu5Ac(a2-8)Neu5Ac(a2-3)Gal(b1-4)Glc
Summary of the method: as §1

[27] = biological target: Neu5Ac(a2-8)Neu5Ac(a2-8)Neu5Ac(a2-3)[Gal(b1-3)GalNAc(b1-4)]Gal(b1-4)Glc
Summary of the method: as §1

[28] = biological target: Neu5Ac(a2-8)Neu5Ac(a2-8)Neu5Ac(a2-3)[GalNAc(b1-4)]Gal(b1-4)Glc
Summary of the method: as §1

[29] = biological target: Neu5Ac(a2-8)Neu5Ac(a2-8)Neu5Ac(a2-8)Neu5Ac(a2-3)[GalNAc(b1-4)]Gal(b1-4)Glc
Summary of the method: as §1

[30] = biological target: Neu5Ac(a2-8)Neu5Gc(a2-3)Gal(b1-4)GlcNAc
Summary of the method: as §1

[31] = biological target: Neu5Ac(b2-6)Gal(b1-4)GlcNAc
Summary of the method: as §1

[32] = biological target: Neu5Ac(b2-6)GalNAc
Summary of the method: as §1

[33] = biological target: Neu5Ac9Ac(a2-3)Gal(b1-3)GlcNAc
Summary of the method: as §1

[34] = biological target: Neu5Ac9Ac(a2-3)Gal(b1-4)GlcNAc
Summary of the method: as §1

[35] = biological target: Neu5Ac9Ac(a2-6)Gal(b1-4)GlcNAc
Summary of the method: as §1

[36] = biological target: Neu5Gc(a2-3)Gal(b1-3)GlcNAc
Summary of the method: as §1

[37] = biological target: Neu5Gc(a2-3)Gal(b1-3)[Fuc(a1-4)]GlcNAc
Summary of the method: as §1

[38] = biological target: Neu5Gc(a2-3)Gal(b1-4)Glc
Summary of the method: as §1

[39] = biological target: Neu5Gc(a2-3)Gal(b1-4)GlcNAc
Summary of the method: as §1

[40] = biological target: Neu5Gc(a2-3)Gal(b1-4)GlcNAc(b1-3)Gal(b1-4)GlcNAc(b1-2)Man(a1-3)[Neu5Gc(a2-3)Gal(b1-4)GlcNAc(b1-3)Gal(b1-4)GlcNAc(b1-2)Man(a1-6)]Man(b1-4)GlcNAc(b1-4)GlcNAc
Summary of the method: as §1

[41] = biological target: Neu5Gc(a2-3)Gal(b1-4)[Fuc(a1-3)]GlcNAc
Summary of the method: as §1

[42] = biological target: Neu5Gc(a2-6)Gal(b1-4)GlcNAc
Summary of the method: as §1

[43] = biological target: Neu5Gc(a2-6)GalNAc
Summary of the method: as §1

[44] = biological target: Neu5Gc(a2-8)Neu5Ac(a2-3)Gal(b1-4)GlcNAc
Summary of the method: as §1

[45] = biological target: Neu5Gc(a2-8)Neu5Gc(a2-3)Gal(b1-4)GlcNAc
Summary of the method: as §1

B1: AAL (Agrocybe aegerita), Q6WY08 (protein)
chain: MQGVNIYNISAGTSVDLAAPVTTGDIVTFFSSALNLNAGAGNPNNTTLNLFAENGAYLLHIAHRLQENVIIFNSRQPDGPWLVEQRVSDVANQFAGIDGKAMVTVFDHGDKYQVVINEKTVIQYTKQISGLTLSLSYNATEETSIFSTVVEAVTYTGLALEHHHHHH
glycan array binding signal (z-score) [1]: 0.157
glycan array binding signal (z-score) [2]: -0.265
glycan array binding signal (z-score) [3]: -0.134
glycan array binding signal (z-score) [4]: 0.372
glycan array binding signal (z-score) [5]: -0.011
glycan array binding signal (z-score) [6]: -0.116
glycan array binding signal (z-score) [7]: -1.46
glycan array binding signal (z-score) [8]: -0.597
glycan array binding signal (z-score) [9]: 0.076
glycan array binding signal (z-score) [10]: -0.33
glycan array binding signal (z-score) [11]: 0.137
glycan array binding signal (z-score) [12]: -0.305
glycan array binding signal (z-score) [13]: -0.272
glycan array binding signal (z-score) [14]: -0.219
glycan array binding signal (z-score) [15]: -0.324
glycan array binding signal (z-score) [16]: 0.101
glycan array binding signal (z-score) [17]: -0.433
glycan array binding signal (z-score) [18]: -0.378
glycan array binding signal (z-score) [19]: 0.371
glycan array binding signal (z-score) [20]: 0.508
glycan array binding signal (z-score) [21]: 0.213
glycan array binding signal (z-score) [22]: -0.674
glycan array binding signal (z-score) [23]: 0.017
glycan array binding signal (z-score) [24]: -0.402
glycan array binding signal (z-score) [25]: 0.022
glycan array binding signal (z-score) [26]: 0.632
glycan array binding signal (z-score) [27]: 0.022
glycan array binding signal (z-score) [28]: 0.05
glycan array binding signal (z-score) [29]: -0.611
glycan array binding signal (z-score) [30]: -0.12
glycan array binding signal (z-score) [31]: 0.218
glycan array binding signal (z-score) [32]: -0.761
glycan array binding signal (z-score) [33]: -0.405
glycan array binding signal (z-score) [34]: -0.004
glycan array binding signal (z-score) [35]: -0.283
glycan array binding signal (z-score) [36]: -0.47
glycan array binding signal (z-score) [37]: 0.062
glycan array binding signal (z-score) [38]: 1.34
glycan array binding signal (z-score) [39]: -0.295
glycan array binding signal (z-score) [40]: -0.043
glycan array binding signal (z-score) [41]: 0.023
glycan array binding signal (z-score) [42]: -0.166
glycan array binding signal (z-score) [43]: -0.14
glycan array binding signal (z-score) [44]: -0.208
glycan array binding signal (z-score) [45]: -0.039
